First the molecules themselves.
B1: LINE1-mini (parent)
chain: GGCAGAGCUCAACACAGCGUGGCAAAGUGGCUGUGGCUAGACUGCC

The values below come from the RNAGym collection of RNA variant scans (doi:10.7554/elife.90254).

Read counts are not given, so values of variants with three or more changes are uncertain.

The data set covers variants of B1. Kind of data set: self-cleavage, relative activity (ratio to wild type); higher = more cleavage; in vitro, sequencing; the parent is a self-cleaving ribozyme.
In the case of GGCGGAGAUCAACACUUGGUGGCAAAGUGGCUGUGGCUAGACUGCC [A4G C8A A16U G17U C18G], the self-cleavage stood at 0.28.

For the variant GGCGGAGCUCAACACAGAGUGGCAAGGUGGCUGUGCCCAAACUGCC [A4G C18A A26G G36C U38C G40A], the self-cleavage stood at 0.03.

Take GGCGGAGCUCAGCACAGCGUGGCAAAGUGGCUGUGGCUUGACUGCC [A4G A12G A39U]: the self-cleavage stood at 0.01.

For GGCGGAGCUCAUCACAGCGUGGCAAGGUGGCUGUGGCUAGACUGCC [A4G A12U A26G], the self-cleavage amounted to 0.03.

As for GGCGGAGAUCAACACAGCGUGGCAACGUGGCUGUGGCUAGCCUGCC [A4G C8A A26C A41C], the self-cleavage stood at 0.34.

As for GGCGGAGCUCAAUACAGCGUGGCAAAGUGGCUGUGGAUAGACUGCC [A4G C13U C37A], the self-cleavage is 0.02.

In the case of GGCGGAGCUCAACCCCGCGUGGCAAAGUGGCUGUGGCUAGACUGCC [A4G A14C A16C], the self-cleavage is 0.02.

GGCGGAGCUCAAAAGCGCGUGACAACGUGGCUGUGGCUAGACUGCC [A4G C13A C15G A16C G22A A26C]: the self-cleavage came to 0.43.

For the variant GGCGGAGCUCAAACCCGCGUGGCAAAGUGGCUGUGGCUAGAGUGCC [A4G C13A A14C A16C C42G], the self-cleavage stood at 0.05.

For GGCGGAGGUCAAAAAAGCGUGGCAAAGUGGCUGGGGCUAGAGUGCC [A4G C8G C13A C15A U34G C42G], the self-cleavage is 0.07.

Consider GGCGGAGCUCAACAAAGCGUGGCAAGGUGGCUGUGGCUAGACUGCC [A4G C15A A26G], for which the self-cleavage turned out to be 0.11.

As for GGCGGAGCUCAACACAGCGUGGGAAAGUGGCUGUGUCUAUACUGCC [A4G C23G G36U G40U], the self-cleavage came out at 0.14.

On to GGCGGAGCUAAACACAGCGUGGCAAAGUGACUGUGGCUACACUGCC [A4G C10A G30A G40C], for which the self-cleavage amounted to 0.

Take GGCGGAUCUCAACACAUCGUGGCAAAGUGGCUGUGGCUAGACUGCC [A4G G7U G17U]: the self-cleavage came to 0.07.

As to GGCGGAGCUCAACACAGCGUGGCAUAGUGGCUGGGGCUAGACUGCC [A4G A25U U34G], the self-cleavage stood at 0.05.

Turning to GGCGAAGCUCAACACACCGUGGCAAAGUGGUUGUGGCUAGACUGCC [A4G G5A G17C C31U], the self-cleavage was found to be 0.

For the variant GGCGGAGCUCAAAACAGCGUGGCAACGUGGCUGGGGCUAGACUGCC [A4G C13A A26C U34G], the self-cleavage worked out at 0.31.

With GGCGGAGCUCAACACAGAGUGGCAAAGUGGCUGGGGUUAGACUGCC [A4G C18A U34G C37U], the self-cleavage came to 0.09.

In the case of GGCGGAGCUCAUCACAGCGUGGUAAAGUGGCUGUGGCUAGACUGCC [A4G A12U C23U], the self-cleavage stood at 0.05.

Turning to GGCGGAGCUCAACACUUCGUGGCAAAGUGGCUUUGGCUAGACUGCC [A4G A16U G17U G33U], the self-cleavage stood at 0.15.

Turning to GGCGGAGCUCAACAUAGCGUGGCAAAGUGGCUGUGGCUAGAAAGCC [A4G C15U C42A U43A], the self-cleavage worked out at 0.05.

Turning to GGCGGAGCUCAACACAGUGUGGCAAAGUGGAUGUGGAUAGACUGCC [A4G C18U C31A C37A], the self-cleavage is 0.06.

GGCGGAGCUGAACACAGCGUGGCAAAGUGGCUGUGGAUACACUGCC [A4G C10G C37A G40C]: the self-cleavage is 0.01.

For GGCGGAGCUAAACAGAGCGUGGUAAAGUGGCUGUGGGUAGACUGCC [A4G C10A C15G C23U C37G], the self-cleavage came to 0.01.

For GGCGGAGCUUAACACAGCGUGGGGAAGUGGCUGUGGCUAAACUGCC [A4G C10U C23G A24G G40A], the self-cleavage was 0.05.

On to GGCGGAGUUCAACACAGCGUGGCAAAGUGGCUCUGGCUAGUCUGCC [A4G C8U G33C A41U], for which the self-cleavage is 0.03.

Take GGCGGAGUUCCUCACAGCGUGGCCAAGUGGUUGUGGCUAGACUGCC [A4G C8U A11C A12U A24C C31U]: the self-cleavage is 0.

For GGCGGAGCUUGACACAGCGUGGCAAAGUGGCUGUGGCUAGACUGCC [A4G C10U A11G], the self-cleavage came to 0.05.

Take GGCGUAGCUCAACAGAGUGUGGCAAAGUGGCUGUGGCUAGCCUGUC [A4G G5U C15G C18U A41C C45U]: the self-cleavage was 0.01.

As to GGCGGACCUCAACAGAGCUUGGCAAAGUGGCUGUGGAUAGACUGCC [A4G G7C C15G G19U C37A], the self-cleavage was 0.04.

For GGCGGAGCUCAAGGCAGCGUGGCAAAGUGGCUGUGGCUAGACAGUC [A4G C13G A14G U43A C45U], the self-cleavage was found to be 0.06.

With GGCGGAGCUCAAAACAGAGUGCCAAAGUGGCUGUGGCUAGACUGCC [A4G C13A C18A G22C], the self-cleavage was determined as 0.05.

With GGCGGAGCUCAACACAGCGUGGCAAAGUGGCUGUGGGUAGACUCCC [A4G C37G G44C], the self-cleavage is 0.01.

For GGCGGAGAUCAACACAGCGUGGAAAAGUGGCUGUGGCUAGACUGCC [A4G C8A C23A], the self-cleavage came out at 0.06.

For GGCGGAGCUCAACCCAGCGUCGCAAAGUGGCUGUGGCUACACUGCC [A4G A14C G21C G40C], the self-cleavage amounted to 0.04.

Turning to GGCGGAGCUCAACACAGCGUGGCGAACGGGCUGUGGCUAUACUGCC [A4G A24G G27C U28G G40U], the self-cleavage came to 0.06.

Regarding GGCGGACCUCGACACAGCCUUGCAAAGUGGCUGUGGCUAGACUGCA [A4G G7C A11G G19C G21U C46A], the self-cleavage was 0.01.

In the case of GGCGGAGCUCAGCGCAGCGUGGCAUAGUGGCUGUGCCUAGACUGCC [A4G A12G A14G A25U G36C], the self-cleavage came out at 0.01.

As for GGCGGAGAUCAACACAGCGUCCCAAAGUGCCUGUGGCUAGACUGCC [A4G C8A G21C G22C G30C], the self-cleavage came to 0.12.

As for GGCGCAGCUCGACACAGCCUUGCAAAGUGGCUGUGGCUGGACUGCC [A4G G5C A11G G19C G21U A39G], the self-cleavage was determined as 0.01.

Take GGCGGAGCUCAACACAGCGUGGCAAGGUGGCGGUGGCUAGACUGCC [A4G A26G U32G]: the self-cleavage was 0.01.

In the case of GGCGGAGCUCAAUACAGCGUGGCAAAGUGGCUGUGUCUAGACUGCC [A4G C13U G36U], the self-cleavage was 1.86.

As for GGCGGAACUUAACACAGCGUGGCAAAUUGGCUGCGGCUAGACUGCC [A4G G7A C10U G27U U34C], the self-cleavage was found to be 0.05.

With GGCGGAGUUCAACACAGCUUGGCAAAGUGGCUGUGGCUAAACUGCC [A4G C8U G19U G40A], the self-cleavage came out at 0.29.

In the case of GGCGGAGCUCAACACAGCGUGGCAAAGUGGCUGUGGCUAGAUGGCC [A4G C42U U43G], the self-cleavage stood at 0.04.

Regarding GGCGGAGCUGAACGCAGCGUGAGAAAGUGGCUGUGGCUAGACUGCC [A4G C10G A14G G22A C23G], the self-cleavage stood at 0.01.

For the variant GGCGGAGCUAAAUACAGGAUGGCAAAGUGCCUGUGGCUAGACUGCC [A4G C10A C13U C18G G19A G30C], the self-cleavage came out at 0.01.

Take GGCGAAUCUCAACACAGCGUGGCAAAGUUGCUGUGGCUAGACUGCC [A4G G5A G7U G29U]: the self-cleavage worked out at 0.28.

Turning to GGCGGAGCUCAAUACAGCGUGGCAAAGUUGCUGUGGCUAGACUGCC [A4G C13U G29U], the self-cleavage came out at 0.1.

GGCGGAGUUCAACACAGCGUGGCAAAGUGGCUGUGGCGAGACUGCC [A4G C8U U38G]: the self-cleavage worked out at 0.09.

Regarding GGCGUAGCUCUACACAGCGGGGCAAAGUGAUUGUGGCUAGACUGCC [A4G G5U A11U U20G G30A C31U], the self-cleavage is 0.01.

Turning to GGCGCAUCUCAACACAGCGUCGCACAGUGGCUGUGGCUUGACUUCC [A4G G5C G7U G21C A25C A39U G44U], the self-cleavage was determined as 0.24.

Consider GGCGUAGCUCAACACAGCGUGGCAAAGUGGCUGUGGCUAGAAUGCC [A4G G5U C42A], for which the self-cleavage was 0.11.

For the variant GGCGUAGCUCAACACAGCGUGGCAAAGUGGCUCUGGCUAGAGUGCC [A4G G5U G33C C42G], the self-cleavage was 0.1.

As for GGCGGACCUCAAUACAGCGUGGCAGAGUGGCUGUGGCUAGACUGCC [A4G G7C C13U A25G], the self-cleavage is 0.09.

Regarding GGCGUAGCUCAACAUAACGUGGCAAAGUGGCUGUGGCUAGAUUGCC [A4G G5U C15U G17A C42U], the self-cleavage was determined as 0.03.
